In a compilation of properties of binary mixtures (doi:10.1007/s10953-023-01246-7):
The densities may have been worked out from excess volumes.

Test: xn = mol fraction of the nth substance listed
Details: 100 kPa

## CCOS(=O)(=O)[O-].CC[n+]1ccn(C)c1 + OCCO
293.15 K, x1 = 0.1982
  mass density: 1165.7 kg/m3
293.15 K, x1 = 0.4002
  mass density: 1195.7 kg/m3
293.15 K, x1 = 0.5005
  mass density: 1206.5 kg/m3
293.15 K, x1 = 0.5992
  mass density: 1215.5 kg/m3
293.15 K, x1 = 0.6994
  mass density: 1223.1 kg/m3
293.15 K, x1 = 0.8001
  mass density: 1229.7 kg/m3
293.15 K, x1 = 0.8993
  mass density: 1237.5 kg/m3
298.15 K, x1 = 0.1003
  mass density: 1141 kg/m3
298.15 K, x1 = 0.1982
  mass density: 1162.1 kg/m3
298.15 K, x1 = 0.2999
  mass density: 1178 kg/m3
298.15 K, x1 = 0.4002
  mass density: 1192.1 kg/m3
298.15 K, x1 = 0.5005
  mass density: 1203.1 kg/m3
298.15 K, x1 = 0.5992
  mass density: 1212.1 kg/m3
298.15 K, x1 = 0.6994
  mass density: 1219.6 kg/m3
298.15 K, x1 = 0.8001
  mass density: 1226.2 kg/m3
298.15 K, x1 = 0.8993
  mass density: 1234 kg/m3
303.15 K, x1 = 0.1003
  mass density: 1137.5 kg/m3
303.15 K, x1 = 0.1982
  mass density: 1158.6 kg/m3
303.15 K, x1 = 0.2999
  mass density: 1174.5 kg/m3
303.15 K, x1 = 0.4002
  mass density: 1188.6 kg/m3
303.15 K, x1 = 0.5005
  mass density: 1199.6 kg/m3
303.15 K, x1 = 0.8001
  mass density: 1222.8 kg/m3
303.15 K, x1 = 0.8993
  mass density: 1230.6 kg/m3
308.15 K, x1 = 0.1003
  mass density: 1133.9 kg/m3
308.15 K, x1 = 0.4002
  mass density: 1185.1 kg/m3
308.15 K, x1 = 0.5005
  mass density: 1196.1 kg/m3
308.15 K, x1 = 0.5992
  mass density: 1205.2 kg/m3
308.15 K, x1 = 0.6994
  mass density: 1212.8 kg/m3
308.15 K, x1 = 0.8001
  mass density: 1219.4 kg/m3
308.15 K, x1 = 0.8993
  mass density: 1227.2 kg/m3
313.15 K, x1 = 0.1003
  mass density: 1130.4 kg/m3
313.15 K, x1 = 0.2999
  mass density: 1167.5 kg/m3
313.15 K, x1 = 0.4002
  mass density: 1181.6 kg/m3
313.15 K, x1 = 0.5005
  mass density: 1192.6 kg/m3
313.15 K, x1 = 0.5992
  mass density: 1201.7 kg/m3
313.15 K, x1 = 0.6994
  mass density: 1209.4 kg/m3
313.15 K, x1 = 0.8001
  mass density: 1216 kg/m3
313.15 K, x1 = 0.8993
  mass density: 1223.8 kg/m3
318.15 K, x1 = 0.1003
  mass density: 1126.9 kg/m3
318.15 K, x1 = 0.2999
  mass density: 1164 kg/m3
318.15 K, x1 = 0.5005
  mass density: 1189.2 kg/m3
318.15 K, x1 = 0.5992
  mass density: 1198.3 kg/m3
318.15 K, x1 = 0.6994
  mass density: 1206 kg/m3
323.15 K, x1 = 0.1982
  mass density: 1144.4 kg/m3
323.15 K, x1 = 0.2999
  mass density: 1160.5 kg/m3
323.15 K, x1 = 0.4002
  mass density: 1174.7 kg/m3
323.15 K, x1 = 0.5005
  mass density: 1185.8 kg/m3
323.15 K, x1 = 0.5992
  mass density: 1194.9 kg/m3
323.15 K, x1 = 0.6994
  mass density: 1202.6 kg/m3
323.15 K, x1 = 0.8001
  mass density: 1209.3 kg/m3
323.15 K, x1 = 0.8993
  mass density: 1217 kg/m3
328.15 K, x1 = 0.1003
  mass density: 1119.7 kg/m3
328.15 K, x1 = 0.1982
  mass density: 1140.9 kg/m3
328.15 K, x1 = 0.2999
  mass density: 1157 kg/m3
328.15 K, x1 = 0.4002
  mass density: 1171.3 kg/m3
328.15 K, x1 = 0.5005
  mass density: 1182.4 kg/m3
328.15 K, x1 = 0.5992
  mass density: 1191.6 kg/m3
328.15 K, x1 = 0.6994
  mass density: 1199.2 kg/m3
328.15 K, x1 = 0.8001
  mass density: 1205.9 kg/m3
328.15 K, x1 = 0.8993
  mass density: 1213.7 kg/m3
333.15 K, x1 = 0.2999
  mass density: 1153.5 kg/m3
333.15 K, x1 = 0.4002
  mass density: 1167.9 kg/m3
333.15 K, x1 = 0.5992
  mass density: 1188.2 kg/m3
333.15 K, x1 = 0.6994
  mass density: 1195.8 kg/m3
333.15 K, x1 = 0.8001
  mass density: 1202.6 kg/m3
333.15 K, x1 = 0.8993
  mass density: 1210.4 kg/m3
338.15 K, x1 = 0.1003
  mass density: 1112.5 kg/m3
338.15 K, x1 = 0.1982
  mass density: 1133.8 kg/m3
338.15 K, x1 = 0.2999
  mass density: 1150 kg/m3
338.15 K, x1 = 0.4002
  mass density: 1164.4 kg/m3
338.15 K, x1 = 0.5005
  mass density: 1175.6 kg/m3
338.15 K, x1 = 0.6994
  mass density: 1192.5 kg/m3
338.15 K, x1 = 0.8001
  mass density: 1199.2 kg/m3
338.15 K, x1 = 0.8993
  mass density: 1207.1 kg/m3
343.15 K, x1 = 0.1003
  mass density: 1109 kg/m3
343.15 K, x1 = 0.1982
  mass density: 1130.3 kg/m3
343.15 K, x1 = 0.2999
  mass density: 1146.5 kg/m3
343.15 K, x1 = 0.4002
  mass density: 1161 kg/m3
343.15 K, x1 = 0.6994
  mass density: 1189.2 kg/m3
343.15 K, x1 = 0.8993
  mass density: 1203.8 kg/m3
